Experimental data from the supplement of paper PMC12217912.
Some of the results follow. Sequences were assembled here from the parent chain. Inactive controls read about 0.05.

B1: TEV protease; numbered along this chain (parent)
chain: MGESLFKGPRDYNPISSSICHLTNESDGHTTSLYGIGFGPFIITNKHLFRRNNGTLVVQSLHGVFKVKDTTTLQQHLVDGRDMIIIRMPKDFPPFPQKLKFREPQREERICLVTTNFQTKSMSSMVSDTSCTFPSGDGIFWKHWIQTKDGQCGSPLVSTRDGFIVGIHSASNFTNTNNYFTSVPKNFMELLTNQEAQQWVSGWRLNADSVLWGGHKVFMVKPEEPFQPVKEATQL

Variants of: B1
Assay: raw area under fraction-flipped curve 0-4 h after induction (AUC4h, not background-subtracted), DNA-recorder readout of cleavage of the substrate (dimensionless); higher = more cleavage of the substrate by the protease variant
Settings: temperature: 34 °C; time window: 0-4 h after rhamnose induction
Method: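 In vivo DNA recorder in E. coli TOP10(DE3) ΔrhaA at 34 °C. Each TEVp single-site mutant (parent TEVp 0) is paired with a single-site variant of the 7-mer TEVs (canonical ENLYFQ|S). The substrate sits between flexible linkers in a Bxb1-sfGFP-TEVs-SsrA fusion, so cleavage stabilises Bxb1 and speeds flipping of a recombination array, read by NGS. The value is the raw area under the fraction-flipped curve over 0-4 h after rhamnose induction (AUC4h), with ≥20 reads per time point. It is not background-subtracted; inactive controls average about 0.047.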
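Further: Bxb1 expression induced with 0.2% (w/v) L-rhamnose at OD600 near 0.5, cultures sampled hourly, flipped fraction per protease–substrate barcode pair counted by paired-end Illumina sequencing.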

Variant	area with substrate ANLYFQS	area with substrate CNLYFQS	area with substrate DNLYFQS	area with substrate GNLYFQS	area with substrate HNLYFQS	area with substrate KNLYFQS	area with substrate LNLYFQS	area with substrate MNLYFQS	area with substrate NNLYFQS	area with substrate PNLYFQS	area with substrate TNLYFQS	area with substrate VNLYFQS	area with substrate WNLYFQS	area with substrate YNLYFQS	area with substrate INLYFQS	area with substrate RNLYFQS	area with substrate SNLYFQS	area with substrate FNLYFQS	area with substrate QNLYFQS
P184V	0.0458	0.0587	0.0568	0.0603	0.0566	0.0602	0.0515	0.0638	0.0572	0.0516	0.0543	0.0528	0.05	0.0492	–	–	–	–	–
P184C	0.0665	–	0.0746	0.0848	–	0.0859	0.0655	0.0439	0.0643	0.0697	0.0673	0.0525	0.0476	–	0.0551	0.0682	0.0617	–	–
P184S	0.0556	0.0675	0.0826	0.057	0.0547	0.0586	–	0.0544	0.0572	0.0514	0.0529	0.0501	0.0553	0.0579	–	0.0388	0.0589	0.0597	–
P184H	0.0518	–	–	0.0312	0.052	0.0288	0.0614	0.0558	0.0541	0.0701	0.0545	–	0.0809	–	–	–	–	–	–
P184G	0.057	–	0.0616	–	0.0681	0.0603	0.0701	–	–	–	0.0638	0.059	0.0568	0.0783	0.0553	0.0476	0.0544	–	0.0554
Q197W	0.0543	0.0478	0.07	–	0.066	0.054	0.0484	–	0.0609	0.0614	0.056	0.0673	0.0597	0.051	–	–	–	0.0563	0.0517
S32A	–	0.0614	0.0631	0.0688	0.0595	0.0659	0.0508	0.0839	0.0731	0.0522	0.0639	0.0712	0.0703	–	0.0675	0.0546	–	0.0764	0.0617
S32I	–	0.0712	–	0.0664	–	0.0504	0.0644	0.0635	–	0.0652	0.0714	–	0.0554	–	–	–	–	–	–
T192E	0.0896	0.0676	–	–	0.0527	–	–	0.0668	–	0.0611	0.0854	0.0748	0.056	–	–	–	0.065	0.0681	–
T192I	0.0854	0.0645	0.0695	0.0743	0.0655	0.0591	0.0698	0.0647	0.0598	0.0697	0.0714	–	0.0571	0.07	0.0481	0.0415	0.0703	0.0717	0.063
T192V	0.0723	0.0642	–	–	–	–	–	–	–	–	–	–	0.0621	–	0.156	–	0.0677	–	–
D208V	0.0857	0.0537	–	0.0553	0.0557	–	0.0704	0.0576	–	–	0.0575	–	0.082	0.0646	–	0.0607	–	–	0.0588
D208E	0.0578	–	0.0594	–	–	–	0.0876	–	–	0.0624	0.0585	–	–	–	–	–	0.0589	–	–
V220R	0.0747	0.0586	0.0699	0.0819	0.0897	0.0584	0.0601	0.0805	–	0.0736	0.0687	0.07	0.0714	0.0486	0.0607	–	0.0705	0.0642	0.0799
